58 compounds from PubChem BioAssay AID463173 (ICCB-Longwood Screening Facility, Harvard Medical School, 2010) can be followed below.

In all, about 52,000 compounds went through this assay and about 4,300 (8.3%) were called active. Rule as the data show it: active = survival mostly below about 52% (no sharp cut-off); inactive = mostly above about 56%. The list shows a part of the results.

For this experiment, the system named is DeltatarO mutant. The experiment can be described thus: growth inhibition of S. aureus wild type versus tarO mutant, primary screen, teichoic acid synthesis inhibitors, RN4220, OD600 (AID 463173). To be noted: OD600, 18 h, active compounds read low, screened at 18.75 µg/mL (by protocol).
For `COc1ccc(CNCC(=O)N2CCN(C(=O)CNCc3ccc(OC)cc3)CC2)cc1`, the survival was inactive: 70%.

Turning to `COc1ccc(NC(=O)N2CCN(c3cc(-c4noc(C)n4)ccc3C)CC2)c(OC)c1`, the survival was inactive: 128%. The figure for `COc1cccc(N2CCN(Cc3nnc(-c4ccc5c(c4)OCO5)o3)CC2)c1` is inactive: 100%; for `Cc1c(C(=O)NCc2ccccc2Cl)sc2nc3n(c(=O)c12)CCC3` it is inactive: 105%. Take `COc1ccc(N(CC(=O)NCc2ccc(C)cc2)S(=O)(=O)c2c(C)[nH]c(=O)[nH]c2=O)cc1`: the survival was inactive: 118%.

Take `COc1ccc(Br)cc1CNC(=O)c1ccc2c(c1)nc1n2CCCCC1`: the survival was inactive: 83%. The figure for `Cc1cccc(CN2C(=O)c3ccccc3S(=O)(=O)c3ccc(C(=O)N4CCN(c5cc(C)ccc5C)CC4)cc32)c1` is inactive: 74%. For `COc1cccc(C(=O)n2nc(-c3ccco3)nc2NCc2cccs2)c1` the value was inactive: 72%; for `CCc1ccc(-c2cc3c(N4CCN(c5ccccc5)CC4)nccn3n2)cc1`, inactive: 49%; for `NC(N)=N/N=C/c1ccco1`, inactive: 99%. As for `COc1ccc(-c2nc3cccc(C)n3c2NC(C)(C)C)cc1O`, the survival is inactive: 109%.

As to `CCOC(=O)Cc1ccc(NC(=O)N2CC(CC)Oc3ccccc32)cc1` (stereo not drawn), the survival is inactive: 58%.

For the compound `CCc1ccc(S(=O)(=O)c2nnn3c2nc(N2CCCC(C)C2)c2cc(Cl)ccc23)cc1` (stereo not drawn), the survival was inactive: 63%. For `COc1ccc(OC)c(CNC(=O)C2COc3ccccc3C2)c1` (stereo not drawn) the value was inactive: 84%. For `Cc1ccc(-c2nc3c4ccccc4n(Cc4cccc(Cl)c4)c(=O)n3n2)cc1` the value was inactive: 123%. The figure for `O=C(Nc1cccc(S(=O)(=O)c2cccc(NC(=O)c3ccco3)c2)c1)c1ccco1` is inactive: 90%. As to `Cc1ccc(NCc2n[nH]c(=S)n2C)cc1Cl`, the survival is inactive: 58%. The figure for `Cc1cc(Cl)ccc1NC(=O)CN1C(=O)C(=O)c2ccccc21` is inactive: 71%; for `O=C(O)CSc1nc2c(c(C(F)(F)F)n1)CCc1ccccc1-2` it is inactive: 96%; for `CCOc1ccc(C(=O)O)o1` it is inactive: 94%.

Regarding `Cc1nc2ccccc2n1CCc1nc2c3ccccc3nc(SCC(=O)Nc3ccc(C(C)C)cc3)n2n1`, the survival was inactive: 71%.

Consider `O=C(Nc1nonc1-c1ccc(Br)cc1)c1ccco1`, for which the survival is inactive: 81%. `COc1ccc(NC(=O)c2ccco2)cc1NC(=O)COc1ccc(C)cc1C`: the survival is inactive: 56%. The figure for `COc1cccc(Cn2cc(S(=O)(=O)c3ccc(C)cc3)c(=O)c3cc4c(cc32)OCO4)c1` is inactive: 67%.

Take `Cc1ccc(NC(=O)Cc2ccc(NC(=O)N3CCCCc4ccccc43)cc2)cc1`: the survival was inactive: 74%. For `CCCc1ccc(NC(=O)C2CCN(c3cnccn3)CC2)cc1` the value was inactive: 62%. The figure for `Clc1ccc(CSc2nc3ncccc3[nH]2)cc1` is inactive: 71%; for `CC1CC(C(F)F)n2nc(C(=O)Nc3sc4c(c3C#N)CCC(C(C)(C)C)C4)nc2N1` (stereo not drawn) it is inactive: 103%; for `COc1cc(SC#N)ccc1N=Cc1c(O)n(-c2cccc(C)c2)c(=O)[nH]c1=O` it is inactive: 88%. For `CC(C(=O)Nc1ccccc1C(F)(F)F)n1nc(-c2ccccc2)c2c(c1=O)CCCC2` (stereo not drawn) the value was active: 30%; for `CC(=O)c1ccc(N2CCN(C(=O)Nc3cccc(F)c3)CC2)cc1`, inactive: 57%. `CCN(CC)c1ccc(C(=O)NCc2ccc3c(c2)CCN3C(C)=O)cc1`: the survival is inactive: 81%. For `Cc1cc(C)c2c(-n3cccc3)c(C(=O)NCCc3ccccc3)sc2n1` the value was inactive: 90%; for `CC(C)CC(=O)Nc1c(C(=O)N2CCN(c3ccccc3F)CC2)oc2ccccc12`, inactive: 73%; for `COC(=O)c1c(O)c[nH]c1C`, inactive: 107%.

In the case of `CCCCC(=O)Nc1ccc(C(=O)OCc2cc(=O)n3nc(C4CC4)sc3n2)cc1`, the survival was inactive: 91%. For `COC(=O)Cn1cnc2c1c(=O)n(C)c(=O)n2C` the value was inactive: 117%.

With `COC(=O)C1=C(c2ccccc2)c2ccccc2S(=O)(=O)N1CC(=O)Nc1ccccc1C(F)(F)F`, the survival is inactive: 55%. The figure for `COCCCNc1cc(C)nc2ccccc12` is inactive: 85%; for `COc1ccc(S(=O)(=O)Cc2ccc(C(=O)NC3CCCCC3)o2)cc1` it is inactive: 124%; for `Cc1csc(-c2coc3cc(O)cc(C)c3c2=O)n1` it is inactive: 68%. The figure for `Cn1c(=O)n(CCc2ccccc2)c(=O)c2c1nc1n2CCN1c1ccc(Cl)cc1` is inactive: 76%; for `Cc1cccc(N2CCN(c3ccc(C(=O)O)cc3NC(=O)c3ccccc3F)CC2C)c1` (stereo not drawn) it is inactive: 69%. Regarding `O=C(CSc1n[nH]c(-c2ccccc2Cl)n1)N1CCN(c2ccccc2F)CC1`, the survival is inactive: 119%.

`O=C(Cc1ccccc1)Nc1cccc(-c2nc3cccnc3s2)c1`: the survival is inactive: 75%. For `CC1=C(C(=O)Nc2cccnc2)C(c2ccccc2)n2nc(SCc3ccccc3F)nc2N1` (stereo not drawn) the value was inactive: 98%; for `O=C(NC1CCCC1)c1ccc2c(c1)N(Cc1ccccc1F)C(=O)c1ccccc1S2`, inactive: 81%.

For the compound `COc1ccc(-c2coc3c2c(C)cc2oc(=O)cc(C)c23)cc1`, the survival was inactive: 82%. Take `Cc1oc(-c2ccc(C(=O)NCc3ccccc3)cc2)nc1CS(=O)(=O)c1ccccc1`: the survival is inactive: 88%.

As to `Cc1sc2c(c1C)c(=O)n(-c1cccc(C(F)(F)F)c1)c(=O)n2Cc1ccccc1C#N`, the survival is inactive: 125%.

Consider `Cc1ccc(OCCCCn2c(CCNC(=O)C(C)(C)C)nc3ccccc32)cc1`, for which the survival is active: 42%. For `Cc1ncc(CO)c2c1Oc1nc(-c3ccccc3)nc(SCC(=O)Nc3cccc(C(F)(F)F)c3)c1C2` the value was inactive: 105%.

As for `CCOc1ccc(N(CC)C(=O)CSc2n[nH]c(-c3ccccc3)n2)cc1`, the survival was inactive: 70%. For `CCn1cc(C(=O)NCc2ccccc2Cl)c(=O)c2cc(S(=O)(=O)N3CCCCC3)ccc21` the value was inactive: 89%; for `COCCCNC(=O)C1CCC(Cn2c(=O)c3sccc3n(Cc3ccc(F)cc3)c2=O)CC1` (stereo not drawn), inactive: 99%; for `Cc1cc(NC(=O)Nc2csc3c2CCCC3)ccc1Br`, inactive: 44%.

`Cc1c(NC(=O)c2ccc(N3CCC(C)CC3)c([N+](=O)[O-])c2)cccc1-c1nc2ccccc2o1`: the survival was inactive: 58%.

Turning to `Cc1ccc(C(=O)Nc2ccc(OCc3cc(=O)n4c5c(sc4n3)CCCC5)cc2)cc1`, the survival was inactive: 90%.
